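1) Cells in 96-well plates. 2) Compound, 48 h, 5 concentrations. 3) Linear interpolation between surrounding doses. 4) Unreached endpoint = highest concentration. GI50 marks 50% less growth.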 Certain results were filed several times, with different values. This list holds those alone. The source may hold further records. Records of one sample usually come from different ranges of test concentrations, which the source does not state; some values may only mark the edge of a range.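 TGI is the concentration that stops growth completely.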
Assays:
Experiment in all cases: NCI-60 cell line screen, 48 h
SNB-75 CNS = system: SNB-75 CNS
SNB-19 CNS = system: SNB-19 CNS
HL-60(TB) leukemia = system: HL-60(TB) leukemia
NCI-H460 lung = system: NCI-H460 lung
HCT-116 colon = system: HCT-116 colon
HCT-15 colon = system: HCT-15 colon
SK-MEL-5 melanoma = system: SK-MEL-5 melanoma
A498 renal = system: A498 renal
SK-MEL-2 melanoma = system: SK-MEL-2 melanoma
HS 578T breast = system: HS 578T breast
OVCAR-3 ovarian = system: OVCAR-3 ovarian
K-562 leukemia = system: K-562 leukemia
SK-OV-3 ovarian = system: SK-OV-3 ovarian
SF-295 CNS = system: SF-295 CNS
HT29 colon = system: HT29 colon
HCC-2998 colon = system: HCC-2998 colon

How did the GI50 (SNB-75 CNS) turn out when COc1cc(/C=C(\C#N)C(N)=O)cc(Br)c1O was run?
The GI50 was 936 nM and > 100 µM.

For COc1cccc2c1C(=O)c1c(O)c3c(c(O)c1C2=O)C[C@@](O)(C(C)=O)C[C@@H]3OC1OC(C)C(O)C(N)C1Br (some centres not stated), which TGI (SNB-19 CNS) is on record?
The TGI was 2.92 µM and 201 nM.

And the TGI (HL-60(TB) leukemia)?
Its TGI is 657 nM and 53 nM.

And the TGI (SNB-75 CNS)?
The TGI was 106 nM and 1.15 µM.

Which TGI (NCI-H460 lung) does the source give for COc1cc2c(c(OC)c1OC)-c1ccc(OC)c(=O)cc1[C@@H](NC(=O)c1ccccc1)CC2 here?
The TGI was 45.2 nM [1 test] and 14 µM [mean of 5 tests].

What about the TGI (HCT-116 colon) of the same molecule?
The TGI was 60.4 nM and 2.31 µM.

And the TGI (HCT-15 colon)?
Its TGI is 211 nM and > 100 µM.

And the TGI (SK-MEL-5 melanoma)?
Its TGI is 15.2 nM and 672 nM.

What about the TGI (A498 renal) of the same molecule?
Its TGI is 30 µM and 2.69 µM.

And the TGI (SK-MEL-2 melanoma)?
Its TGI is 6.35 nM and 6.65 µM.

What about the TGI (HS 578T breast) of the same molecule?
Its TGI is < 3 nM and 1.09 µM.

And the TGI (OVCAR-3 ovarian)?
The TGI was < 3 nM and 42.7 nM.

And the TGI (K-562 leukemia)?
The TGI was 3.43 µM and > 100 µM.

What about the TGI (SK-OV-3 ovarian) of the same molecule?
The TGI was 24.3 nM and 2.72 µM.

What about the TGI (SF-295 CNS) of the same molecule?
The TGI was 15.9 nM and 705 nM.

What about the TGI (HT29 colon) of the same molecule?
Its TGI is 20.8 nM and 855 nM.

And the TGI (HCC-2998 colon)?
Its TGI is 9.81 nM and 763 nM.

From PubChem BioAssay (NCI)
